# Results as given in PubChem BioAssay AID504832 (National Center for Advancing Translational Sciences (NCATS), 2011).
# The whole screen tested about 310,000 compounds, of which about 18,000 (5.8%) were called active. The shares of active, inactive and inconclusive entries below differ from those in the screen. Calls follow the shape of the dose curve; as a rule, active = well fitted inhibition curve with a large enough effect; inconclusive = small, poorly fitted or top-dose-only effect, or another doubt; inactive = no such curve, though single readings can be large or run the other way. No potency is given beside an inconclusive call; the fits are too rough.
# Assay: Primary qHTS for delayed death inhibitors of the malarial parasite plastid, 48 hour incubation
# Conditions: P. falciparum luciferase growth in erythrocytes; series mostly up to 28.7 µM; activity change, negative = inhibition: at the top concentration
# In short: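 Luminescence readout; reporter = integrated firefly luciferase in P. falciparum. RBC culture at 2% hematocrit, 0.1% parasitemia final, 37 C/5% CO2; decreased signal taken as growth inhibition.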
# % is scaled to controls: 0 for no effect and ±100 for the full control effect; potency is read from the fitted curve at half-maximal effect; tags tell the direction and shape of the fitted curve.
SMILES,Potency,"activity change, negative = inhibition"
C=CCNc1nc(Cl)nc(Nc2ccc(OC)cc2OC)n1,"inconclusive [inhibitor, partial curve, poor fit]",
O=C(CS(=O)(=O)c1cn(Cc2ccc(F)cc2)c2ccccc12)N1CCCCC1,"inconclusive [inhibitor, single point]",
O=C(CN1C(=O)c2cccc3cccc1c23)Nc1ccc(S(=O)(=O)N2CCOCC2)cc1,"inconclusive [inhibitor, single point]",
CCOC(=O)Cc1c(C)nc2c(-c3ccccc3)c[nH]n2c1=O,"inconclusive [inhibitor, partial curve, poor fit]",
COc1ccc(C)cc1NC(=O)NC1CCN(Cc2ccccc2)CC1,"inconclusive [inhibitor, single point]",
CCN(Cc1ccccc1)c1ccc(/C=N/NC(=S)NC(C)C)cc1,,inactive: 0%
CC1(C)C(=O)Nc2ccccc2N1C(=O)c1ccc([N+](=O)[O-])cc1,"inconclusive [inhibitor, single point]",
C#CCn1c(S(=O)(=O)Cc2ccc(OC)cc2)nc(-c2ccccc2)c1-c1ccccc1,"inconclusive [inhibitor, single point]",
COc1ccc(C(CNC(=O)c2ccc(OC)c(S(=O)(=O)N3CCCC3)c2)N2CCCC2)cc1 (stereo unspecified),"inconclusive [inhibitor, single point]",
Cc1ccc(Nc2nc(CSc3nnc(-c4cccnc4)n3-c3ccccc3C)cs2)cc1,,inactive: -21.4%
CCCCN(CC)CCNC(=O)c1cc2c(=O)n(CC)c3ccccc3c2s1,"inconclusive [inhibitor, single point]",
O=C(CCc1ccccc1)NNC(=O)c1ccccc1Cl,"inconclusive [inhibitor, full curve, poor fit]",
Cc1ccc(OCC(=O)Nc2ccc(S(=O)(=O)N3CCCCC3)cc2)c([N+](=O)[O-])n1,"inconclusive [inhibitor, single point]",
O=C(Cc1ccc(-n2c(=O)c3sccc3n(CC(=O)Nc3ccccc3F)c2=O)cc1)NCc1ccco1,"inconclusive [inhibitor, partial curve]",
CC(C)CNC(=O)CSc1n[nH]c(=O)n1CCc1ccccc1,,inactive: 1.05%
Cc1ccc(S(=O)(=O)NCC2CCC(C(=O)NCCCOC(C)C)CC2)cc1 (stereo unspecified),"inconclusive [inhibitor, single point]",
COc1ccc(Cn2c(=O)[nH]c3cc(C(=O)N4CCN(c5ccccn5)CC4)ccc3c2=O)cc1,"inconclusive [inhibitor, single point]",
CCCNC(=O)Cn1c(-c2ccc(F)cc2)cc(C(=O)OCC)c1C,,inactive: -13.5%
CCCn1c(SCC(=O)NCCc2ccccc2)nnc1-c1ccco1,,inactive: -19.3%
Cc1cc(OCCSc2nnc(-c3cccs3)n2C)ccc1Cl,"inconclusive [inhibitor, single point]",
OC(CNC1CCCCCCC1)c1ccccc1 (stereo unspecified),"inconclusive [inhibitor, full curve]",
CC(C)Oc1ccc2c3c(c(=O)oc2c1)CCC3,,inactive: 14.8%

SMILES,Potency,"activity change, negative = inhibition"
COc1cc(C(C(=O)NC2CCCCC2)N(Cc2cccs2)C(=O)Cc2c[nH]c3ccccc23)cc(OC)c1OC (stereo unspecified),active: 9.28 µM,
COc1ccc(C(=O)CC(=O)C(=O)Nc2ccccc2Cl)cc1,"inconclusive [inhibitor, partial curve]",
Cc1ccc(CSCC(=O)Nc2cc(S(=O)(=O)N3CCOCC3)ccc2OC(C)C)cc1,active: 10.4 µM,
COCCCNC(=O)c1cc2cc3cc(OC)ccc3nc2o1,active: 10.4 µM,
COc1ccc(C(NC(=O)c2c(F)c(F)c(F)c(F)c2F)c2ccccc2)cc1 (stereo unspecified),"inconclusive [inhibitor, partial curve, poor fit]",
CCOP(=O)(OCC)c1nc(-c2cccc3ccccc23)oc1N1CCCCC1,"inconclusive [inhibitor, partial curve, poor fit]",
CCCOc1ccc(/C=N/Nc2ccccc2[N+](=O)[O-])c(OCCC)c1,"inconclusive [inhibitor, partial curve, poor fit]",
COc1cccc(NC(=O)CN(C)C(=O)c2c(C)nn(Cc3ccc(C)cc3)c2Cl)c1,"inconclusive [inhibitor, single point]",
Cc1[nH]c2ccccc2c1C1=NNC(=Nc2ccc(F)cc2)SC1,"inconclusive [inhibitor, single point]",
Cc1nc(N)c(CC(Br)CBr)c(Cl)n1 (stereo unspecified),active: 0.0738 µM,
COc1ccc(-c2cc(C(=O)Nc3c(C)n(C)n(-c4ccccc4)c3=O)c3ccccc3n2)cc1OC,"inconclusive [inhibitor, single point]",
COc1ccc(S(=O)(=O)N2CCN(C(=O)CCNC(=O)c3ccccc3Cl)CC2)cc1,"inconclusive [inhibitor, partial curve]",
CC(Oc1cccc(Cl)c1)C(=O)Nc1ccccc1C(=O)N1CCCCC1 (stereo unspecified),,inactive: 1.01%
O=C(/C=C/c1ccccc1)N1c2ccccc2Sc2ccc(C(F)(F)F)cc21,"inconclusive [inhibitor, single point]",
CCO[C@@H]1OC(C(=O)O)=C[C@H](c2ccc(C(F)(F)F)cc2)[C@H]1CCCO,"inconclusive [inhibitor, single point]",
Cc1ccc(C2(c3ccccc3)NC(=O)N(CC(=O)N(C)C3CCS(=O)(=O)C3)C2=O)cc1C (stereo unspecified),"inconclusive [inhibitor, partial curve, poor fit]",
COc1ccc(CCn2c(C)ccc2C)cc1OC,active: 5.22 µM,
CCCNC(=O)C(Cc1ccccc1C)NC(=O)c1ccc(C#N)cc1 (stereo unspecified),"inconclusive [inhibitor, partial curve, poor fit]",
COc1ccc(CC(=O)NCC(c2ccc(OC)cc2)N(C)C)cc1 (stereo unspecified),"inconclusive [inhibitor, full curve]",
CCOC(=O)C1=C(CNCc2ccccc2Cl)NC(=O)NC1c1cccc([N+](=O)[O-])c1 (stereo unspecified),"inconclusive [inhibitor, full curve]",
O=C(NCC(c1ccco1)N1CCCC1)c1cc2cc(Cl)ccc2o1 (stereo unspecified),"inconclusive [inhibitor, single point]",
NC(=O)c1ccccc1NC(=O)c1ccoc1,,inactive: 30.3%

SMILES,Potency,"activity change, negative = inhibition"
COc1ccc(NC(=O)Nc2ccc(C)cc2OC(F)F)cc1OC,"inconclusive [inhibitor, single point]",
N#Cc1c(NC(=O)CSC2=NCCS2)sc2c1CCCC2,"inconclusive [inhibitor, single point]",
COc1cccc(N=Nc2ccc(O)c3ncccc23)c1,"inconclusive [inhibitor, full curve]",
COc1cc(OC)c2ccc(=O)oc2c1C(CCN1CCCC1)c1ccc(N(C)C)cc1 (stereo unspecified),"inconclusive [inhibitor, single point]",
Cc1cc(C)c(NC(=O)CNC(=O)c2cc([N+](=O)[O-])ccc2N2CCOCC2)c(C)c1,"inconclusive [inhibitor, single point]",
Cc1c(C(=O)N2CCCCC2)c(S(=O)(=O)N2CCC(C)CC2)c(C)n1C,,inactive: 19%
COCCn1c(SCC(=O)Nc2cccc(S(N)(=O)=O)c2)nc2cc(Cl)ccc2c1=O,"inconclusive [inhibitor, partial curve, poor fit]",
COc1ccc(N2CC(C(=O)Nc3ccc(S(=O)(=O)N4CCCC4)cc3)CC2=O)cc1 (stereo unspecified),"inconclusive [inhibitor, partial curve, poor fit]",
COc1ccc(N2CCN(C(=O)c3ccccc3NC(=O)c3ccccc3)CC2)cc1,,inactive: 22.1%
CCOc1ccc(/C=N/NC(=O)c2ccccc2C)cc1CN1CC2CC(C1)c1cccc(=O)n1C2 (stereo unspecified),active: 3.7 µM,
COc1cc(OC)c2c(-c3ccccc3)cc(=O)oc2c1C(CCN1CCCCC1)c1ccc2c(c1)OCO2 (stereo unspecified),"inconclusive [inhibitor, partial curve]",
O=C(Nc1cc(Cl)ccc1N1CCOCC1)c1ccc(F)c(S(=O)(=O)N2CCOCC2)c1,"inconclusive [inhibitor, single point]",
C/C(=N\N=C(/N)SC1CC(=O)N(c2ccc(Br)cc2)C1=O)c1cccs1 (stereo unspecified),,inactive: 36.9%
CCOc1ccc(Br)cc1C(=O)Nc1ccc(C(=O)NCC(C)C)cc1,"inconclusive [inhibitor, single point]",
CCN1CCN(C(=O)CS(=O)(=O)Cc2nc(-c3cccc(OC)c3)oc2C)CC1,,inactive: 12.6%
CCOC(=O)N1CCN(C(=O)CN(c2ccc(Oc3ccccc3)cc2)S(C)(=O)=O)CC1,"inconclusive [inhibitor, partial curve]",
Cc1ccc2c(c1)N(CC(=O)N1CCCC1)C(=O)CO2,,inactive: 27%
Cc1nc(Nc2ccc(Cl)cc2)c2nnn(Cc3ccccc3)c2n1,"inconclusive [inhibitor, single point]",
O=C(CCn1cccn1)N1CCCC(N2CCN(c3cccc(C(F)(F)F)c3)CC2)C1 (stereo unspecified),,inactive: -15.5%
CCn1ccnc1CN(C)C(=O)c1ccc(OC2CCN(CCc3ccccc3)CC2)cc1,,inactive: -19.8%
CC1CCN(C(=O)CSc2nnc(Cc3cccn3C)n2-c2ccc(F)cc2)CC1,"inconclusive [inhibitor, partial curve, poor fit]",
COCCN(Cc1cc2cc(C)ccc2n2nnnc12)C(=S)Nc1ccc(C)cc1,"inconclusive [inhibitor, single point]",
